Data from the supplement of paper PMC11417369.
± gives the standard deviation of the averaged measurements. The list shows a part of the results.

Each sequence was assayed on PfAP2-G AP2 domain (GST-tagged) (assay: gcPBM binding intensity (ln(normalized median fluorescence intensity)); higher = stronger DNA binding).
In short: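 An Agilent 4 × 180k array of primer-extended double-stranded 36-bp intergenic genomic probes, with negative controls, was incubated for 1 h with GST-tagged P. falciparum DNA-binding domains expressed in E. coli. Alexa488 anti-GST antibody detected bound protein, scanned at 488 nm. Binding intensity is the highest Masliner-normalised natural-log median intensity across replicate spots of either probe orientation.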

| Sequence | gcPBM binding intensity (ln) |
| --- | --- |
| TCCAAATACAACTACACACAAACAAAAATTATATAT [CACACA_site881] | 9.99 ± 0.23 |
| AATAAATAAATATATACACACATATATATATAATAT [CACACA_site921] | 9.77 ± 0.028 |
| TGAAAAAATATAAAATATAAAATAAAAAATATAAAA [GTGCAC_negctrl_site536] | 9.555 ± 0.007 |
| TACAATCTAAAATACACACACACAAACATATATTTA [CACACA_site3702] | 10 |
| AAGATATATATAGAAAGTACTTATATTTGTATAATT [XGTACX_site8855] | 11 ± 0.51 |
| ATATTAATATATATGTTTTATTACCATTTTATGTAT [CACACA_negctrl_site1761] | 9.855 ± 0.021 |
| ATTATACAAAATGGTAAGGAAAAGGAAATTTTTTTT [CACACA_negctrl_site1090] | 9.77 ± 0.014 |
| CAATATTATATATATACACACATAATCTGTAAAAAC [CACACA_site1068] | 10 ± 0.13 |
| AAAGTAGGCTTATATGCACACTTTGAAATATTATAA [CACACA_site5117] | 9.86 ± 0.057 |
| CATATATATATATATACACACATATATATTTTCTTT [CACACA_site1457] | 9.79 ± 0.16 |
| AAAAAAAAAAATATCACACACACATAAATATAAACA [CACACA_site7138] | 9.95 ± 0.057 |
| TATATATATCAGCAATGTACACAATGCATATTATAT [XGTACX_site4836] | 10.9 ± 0.6 |
| ATAAAAATTGATTATACACACGCGCACCCACAACAA [CACACA_site3536] | 10.8 ± 0.54 |
| TATTTATAAATTTACACACACACATGGGAACATAAA [CACACA_site5111] | 10.6 ± 0.3 |
| ATGTCAAATTTTTGTGCACACATATATAGTTATTAT [CACACA_site2242] | 10.6 ± 0.31 |
| TTATTTTATTTTAAAAAAAACAATATAAATTCAAAG [GTGCAC_negctrl_site57] | 9.725 ± 0.021 |
| AATGTAAAAGTAAACACACACATATATATATACATA [CACACA_site2484] | 9.985 ± 0.049 |
| TATAAAAATAAAAAAAGTACACATAAAAATATATAT [XGTACX_site5189] | 11.5 ± 0.78 |
| GTATCTCATTATTCGTGTACTAAACACATAAAAATA [XGTACX_site2262] | 11.2 ± 0.88 |
| ATCTATATCTATAATACACACTAAAGTAACAGAATA [CACACA_site7370] | 10.1 ± 0.18 |
| GATTTACAACACGAACGTACAGAACAAAAAGGAAAA [XGTACX_site6501] | 11.2 ± 0.71 |
| TGTTTAAAGGAAAAGGAGTAGTCTATTATATTATCT [CACACA_negctrl_site858] | 9.9 ± 0.11 |

| Sequence | gcPBM binding intensity (ln) |
| --- | --- |
| ATACACATATATGTGTGTACTCACCTTTTAATATGA [XGTACX_site4349] | 11.5 ± 1 |
| TATTGTATTTAATAAACACACAATATTAAAAATATA [CACACA_site4725] | 9.91 ± 0.16 |
| CATATATACACATACACACACACACGGACACGCACA [CACACA_site6910] | 11.1 ± 0.76 |
| ATATAATGTTATAGAAGTACATGAAATACTTATTTA [XGTACX_site8850] | 11.3 ± 0.95 |
| TTTAATTTGTTATACACACACAAAAAAAGTTATAAA [CACACA_site7779] | 10.1 ± 0.18 |
| TCTTTCTTATATTTATATAATTATATTTATTTTATA [GTGCAC_negctrl_site300] | 9.685 ± 0.035 |
| GGAATACAGGAAAAAAGTACAGAAAATGGAATATTA [XGTACX_site5053] | 11.5 ± 0.96 |
| AACATTTATAAATATTGTACATATAGATTTATATAT [XGTACX_site2662] | 10.9 ± 0.59 |
| AAAATAAAATAACGTTGTACAACATCATTTCTATAT [XGTACX_site5080] | 11.3 ± 0.74 |
| AACAATATATTGAATAGTACATATATATAAACATAT [XGTACX_site2811] | 11 ± 0.7 |
| TATAAATATTACGGTAGTACTATACATATATATAAT [XGTACX_site7442] | 11.1 ± 0.62 |
| TTAGAAACATTGAAAGCATGCAATATTACTTTATAC [TGCATGCA_site522] | 9.81 ± 0.099 |
| TCCTTATATTTGCACACACACACAAGAAAATGAAAA [CACACA_site6613] | 10.5 ± 0.52 |
| TTTTTTTTTCCCGTAAATATTGAGACAACCATAATG [CACACA_negctrl_site41] | 10.6 ± 0.54 |
| TATTTTTATTTAGGACGTACAAAAATAAATCATATT [XGTACX_site1448] | 11.6 ± 0.64 |
| TTAAAAATATATATAACACACACATAATATATATAT [CACACA_site8811] | 9.96 ± 0.23 |
| CATATAAAAAGACACACACACACATATATATATATA [CACACA_site940] | 10.5 ± 0.77 |
| CAGGAGAGTAAAAGAGTGCGAATTATTATTTTGGAG | 9.75 ± 0.2 |
| GGCATATATATATGCACACATACATAAATACATGTG [CACACA_site5999] | 10.4 ± 0.26 |
| AGACATTAATGAAGGTGTACATATATTTGACAGAAT [XGTACX_site655] | 11.6 ± 1 |
| TCCCTAGTATACCTTAGTACATATATTATTTTGCAC [XGTACX_site2174] | 10.9 ± 0.57 |
| ATAAAAAACTCAGAGCGTACATAATTTTTTCTATTT [XGTACX_site2803] | 11.3 ± 0.78 |

| Sequence | gcPBM binding intensity (ln) |
| --- | --- |
| TAACCATACATACATACACACACACCCACATATATA [CACACA_site8951] | 10.1 ± 0.18 |
| TATATATTCAAATGTGCATGTAAAAAAAAAAAAAAG [TGCATGCA_site126] | 10.1 ± 0.3 |
| AAGTTGGAAAGGTTATGTACTTATTTTTTAAAATAA [XGTACX_site204] | 11.6 ± 1.1 |
| TATATAATATAATTGACATGCAACCATTTTCGTGAA [TGCATGCA_site458] | 10.1 ± 0.2 |
| TCATTCATATGTTACACACACACACGCACATAAAAA [CACACA_site7514] | 10.5 ± 0.35 |
| CAGGCGTGAAATATACGTACACACATTATTTATATT [XGTACX_site5337] | 11.8 ± 0.94 |
| TTTTGTTACGGCAAGGAAGTTAAGCATAAATGAATG [GTGCAC_negctrl_site173] | 10.1 ± 0.16 |
| ATATAAATTATTTACACACAAACATTTATACTTTTA [CACACA_site3448] | 9.96 |
| TAATAATAGTCTAATACATGCATCGATAACGGAACT [TGCATGCA_site98] | 9.79 ± 0.042 |
| ATGTTAATAACTTGTGGTACTGTTATAATTTAGTAA [XGTACX_site2114] | 10.9 ± 0.54 |
| ATATTTTTTGCTATTACACACAAGGGATTATTATTT [CACACA_site7776] | 10.2 ± 0.23 |
| AAGAAAAAAAATATATATGTATATATTATTTTAACA [TGCATGCA_negctrl_site534] | 9.54 ± 0.27 |
| ATATATCTACTGTGTTGTACTGTTAATATTTGAATA [XGTACX_site1931] | 10.9 ± 0.63 |
| ATATAAGTGTATCTAACACACAAATATGTAAAAATG [CACACA_site7006] | 10.2 ± 0.23 |
| TATATACACATATATACACACACATATATATATATA [CACACA_site9127] | 10.2 ± 0.2 |
| TGAAAGAATTAATTTTGTACATATAAAAATTTTATT [XGTACX_site8500] | 10.7 ± 0.47 |
| AAAATTACTATATGAACACACATGATTAGATATATG [CACACA_site3083] | 9.98 ± 0.014 |
| TATATATATATATACACACACACCCTAAAAATATAT [CACACA_site1611] | 10.2 ± 0.22 |
| AATAAATAAATAATATAATGAAATTATAAAATGTGG [TGCATGCA_negctrl_site385] | 9.71 ± 0.16 |
| AAATGAAATTTGTATACACACAAATATATTTATATA [CACACA_site6525] | 9.95 ± 0.085 |
| TATTTGTGCCAAAAATGAAAAAGTTTGTATAAAACC [CACACA_negctrl_site1406] | 10.1 ± 0.17 |
| TTTTTATTTTTAAAGGCACACACATTTTTATTTTTA [CACACA_site8624] | 10.2 ± 0.26 |

| Sequence | gcPBM binding intensity (ln) |
| --- | --- |
| GATGGATTTATTTAAAGTACATATTTAAAAAACTGT [XGTACX_site7567] | 11.3 ± 0.88 |
| TTTCTCCCATTTTTTAGTACACAAAATATATATGTA [XGTACX_site7218] | 11.7 ± 1.1 |
| AAAGTAAAAGAAAGCACACACACATGTATATATGTA [CACACA_site3857] | 9.85 ± 0.2 |
| AATGATCATAAATACACACACACAAAAAAAAAAAAA [CACACA_site6072] | 9.97 ± 0.44 |
| TATTAAAAAAATGTATGTACATATATAAATTTTTTT [XGTACX_site1094] | 11.2 ± 0.8 |
| AACAACAATTTCGTCATACACACATTCAGAATATAT [CACACA_site2371] | 10.1 ± 0.11 |
| AAAAAAAAAAAATATACACACACATATATATATATA [CACACA_site9123] | 9.93 ± 0.48 |
| AATTTTTTTTTAATCATGCACACTGTTAAAAGAATA [CACACA_site1240] | 10.2 ± 0.33 |
| TTTTAAAAATTAAGTGCATGTCCTTATAAAAAAAAA [TGCATGCA_site845] | 10.7 ± 0.55 |
| TTCATATATTTAGGACGTACTTTTATATTACTATAT [XGTACX_site6456] | 11.2 ± 0.73 |
| TTTATATCATTACAAGTGCATATCATCATAAATTCT [GTGCAC_site9878] | 9.92 ± 0.099 |
| TCTTGATTATATAGTACTACACATTATAAAAAAATT [XGTACX_site2465] | 11.3 ± 0.75 |
| ATATGGAATAATACGCGTACACACATATATATATTA [XGTACX_site307] | 11.7 ± 1 |
| TATATATAAATATATGTGCACTTTTTATATTTATAT | 10.3 ± 0.38 |
| TATAATGAGGATGATAGTACGTATTAGTATAAAAAA [XGTACX_site6623] | 11.1 ± 0.6 |
| TTTATATATATTTATACACACAAACATAATACTACT [CACACA_site5161] | 10.3 ± 0.25 |
| TTTTTAATTTTATATACACACATAAAATATATGAAG [CACACA_site3145] | 10 ± 0.28 |
| ATTTTTTTTTTTTTTTTGGGGGGGTATACTTTTAAA [CACACA_negctrl_site1020] | 11.9 ± 0.77 |
| TTCCTTTTTTTTTATTGTACAAAAATATCAAAAAGG [XGTACX_site8505] | 11 ± 0.58 |
| AATTATATAACAAATTGTACGAATGAAAATATTATT [XGTACX_site4237] | 10.7 ± 0.38 |
| ATAGAATAAATTTTGTCATTTATTCCTTATATATAA [GTGCAC_negctrl_site227] | 9.85 ± 0.085 |
| TAAAAATAGGAATACGCACACGATGATTAATTTATA [CACACA_site1835] | 10.3 ± 0.22 |
